# Measurements reported in the supplement of paper PMC8728848.
# This is one part of the list.
# B1: HA-11100 (Pseudomonas aeruginosa), Q02G51_PSEAB (protein)
# chain: QFNPNEIKISQQGKTTLIDQSTQRAIINWKGFDVSADEAVRFNQPGVTSSTLNRVTAGQESVIAGRISAPGQVIIYNSNGVVFSGSAKVDVGSLITTTANISDEHFRQGKLIFDQPGNPDARIVNDGSISVAEKGLAAFVAPSVANNGVINARLGTVAMAAGNAATIDLYG
# Tests used:
# Assay in all cases: glycan array binding signal (z-score within array); higher = stronger binding
# Settings in all cases: glycan notation: IUPAC condensed, linker removed
# [1] = target: Neu5Ac(a2-3)Gal(b1-4)GlcNAc(b1-3)[Neu5Ac(a2-3)Gal(b1-4)GlcNAc(b1-6)]GalNAc
# Procedure, shortened: (§1)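 From the Consortium for Functional Glycomics database, 3228 arrays were curated, keeping only those whose protein sequence was available. Binding is given as a within-array Z-score averaged across arrays sharing a protein sequence and across linkers. Negative Z-scores can be read as non-binding.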
# [2] = target: Neu5Ac(a2-3)Gal(b1-4)GlcNAc(b1-6)GalNAc
# Procedure, shortened: as §1
# [3] = target: Neu5Ac(a2-3)Gal(b1-4)GlcNAc(b1-6)[Gal(b1-3)]GalNAc
# Procedure, shortened: as §1
# [4] = target: Neu5Ac(a2-3)Gal(b1-4)GlcNAc(b1-6)[Neu5Ac(a2-3)Gal(b1-3)]GalNAc
# Procedure, shortened: as §1
# [5] = target: Neu5Ac(a2-3)Gal(b1-4)GlcNAc6S
# Procedure, shortened: as §1
# [6] = target: Neu5Ac(a2-3)Gal(b1-4)[Fuc(a1-3)]GlcNAc
# Procedure, shortened: as §1
# [7] = target: Neu5Ac(a2-3)Gal(b1-4)[Fuc(a1-3)]GlcNAc(b1-2)Man
# Procedure, shortened: as §1
# [8] = target: Neu5Ac(a2-3)Gal(b1-4)[Fuc(a1-3)]GlcNAc(b1-3)Gal
# Procedure, shortened: as §1
# [9] = target: Neu5Ac(a2-3)Gal(b1-4)[Fuc(a1-3)]GlcNAc(b1-3)Gal(b1-4)GlcNAc
# Procedure, shortened: as §1
# [10] = target: Neu5Ac(a2-3)Gal(b1-4)[Fuc(a1-3)]GlcNAc(b1-3)Gal(b1-4)[Fuc(a1-3)]GlcNAc(b1-3)Gal(b1-4)[Fuc(a1-3)]GlcNAc
# Procedure, shortened: as §1
# [11] = target: Neu5Ac(a2-3)Gal(b1-4)[Fuc(a1-3)]GlcNAc(b1-3)GalNAc
# Procedure, shortened: as §1
# [12] = target: Neu5Ac(a2-3)Gal(b1-4)[Fuc(a1-3)]GlcNAc(b1-6)[Gal(b1-3)]GalNAc
# Procedure, shortened: as §1
# [13] = target: Neu5Ac(a2-3)Gal(b1-4)[Fuc(a1-3)]GlcNAc(b1-6)[Neu5Ac(a2-3)Gal(b1-3)]GalNAc
# Procedure, shortened: as §1
# [14] = target: Neu5Ac(a2-3)Gal(b1-4)[Fuc(a1-3)]GlcNAc6S
# Procedure, shortened: as §1
# [15] = target: Neu5Ac(a2-3)Gal6S(b1-4)GlcNAc
# Procedure, shortened: as §1
# [16] = target: Neu5Ac(a2-3)Gal6S(b1-4)[Fuc(a1-3)]GlcNAc
# Procedure, shortened: as §1
# Neu5Ac(a2-3)GalNAc = target: Neu5Ac(a2-3)GalNAc
# Procedure, shortened: as §1
# [17] = target: Neu5Ac(a2-3)GalNAc(b1-4)GlcNAc
# Procedure, shortened: as §1
# [18] = target: Neu5Ac(a2-3)[GalNAc(b1-4)]Gal(b1-4)Glc
# Procedure, shortened: as §1
# [19] = target: Neu5Ac(a2-3)[GalNAc(b1-4)]Gal(b1-4)GlcNAc
# Procedure, shortened: as §1
# [20] = target: Neu5Ac(a2-3)[GalNAc(b1-4)]Gal(b1-4)GlcNAc(b1-3)GalNAc
# Procedure, shortened: as §1
# [21] = target: Neu5Ac(a2-3)[Neu5Ac(a2-6)]GalNAc
# Procedure, shortened: as §1
# Neu5Ac(a2-6)Gal = target: Neu5Ac(a2-6)Gal
# Procedure, shortened: as §1
# [22] = target: Neu5Ac(a2-6)Gal(b1-3)GlcNAc(b1-3)[Gal(b1-4)GlcNAc(b1-6)]Gal(b1-4)Glc
# Procedure, shortened: as §1
# Neu5Ac(a2-6)Gal(b1-4)Glc = target: Neu5Ac(a2-6)Gal(b1-4)Glc
# Procedure, shortened: as §1
# [23] = target: Neu5Ac(a2-6)Gal(b1-4)GlcNAc
# Procedure, shortened: as §1
# [24] = target: Neu5Ac(a2-6)Gal(b1-4)GlcNAc(b1-2)Man
# Procedure, shortened: as §1
# [25] = target: Neu5Ac(a2-6)Gal(b1-4)GlcNAc(b1-2)Man(a1-3)Man(b1-4)GlcNAc(b1-4)GlcNAc
# Procedure, shortened: as §1
# [26] = target: Neu5Ac(a2-6)Gal(b1-4)GlcNAc(b1-2)Man(a1-3)[Gal(b1-4)GlcNAc(b1-2)Man(a1-6)]Man(b1-4)GlcNAc(b1-4)GlcNAc
# Procedure, shortened: as §1
# [27] = target: Neu5Ac(a2-6)Gal(b1-4)GlcNAc(b1-2)Man(a1-3)[GlcNAc(b1-2)Man(a1-6)]Man(b1-4)GlcNAc(b1-4)GlcNAc
# Procedure, shortened: as §1
# [28] = target: Neu5Ac(a2-6)Gal(b1-4)GlcNAc(b1-2)Man(a1-3)[GlcNAc(b1-4)][Neu5Ac(a2-6)Gal(b1-4)GlcNAc(b1-2)Man(a1-6)]Man(b1-4)GlcNAc(b1-4)GlcNAc
# Procedure, shortened: as §1
# [29] = target: Neu5Ac(a2-6)Gal(b1-4)GlcNAc(b1-2)Man(a1-3)[Man(a1-6)]Man(b1-4)GlcNAc(b1-4)GlcNAc
# Procedure, shortened: as §1
# [30] = target: Neu5Ac(a2-6)Gal(b1-4)GlcNAc(b1-2)Man(a1-3)[Neu5Ac(a2-3)Gal(b1-4)GlcNAc(b1-2)Man(a1-6)]Man(b1-4)GlcNAc(b1-4)GlcNAc
# Procedure, shortened: as §1
# [31] = target: Neu5Ac(a2-6)Gal(b1-4)GlcNAc(b1-2)Man(a1-3)[Neu5Ac(a2-6)Gal(b1-4)GlcNAc(b1-2)Man(a1-6)]Man(b1-4)GlcNAc(b1-4)GlcNAc
# Procedure, shortened: as §1
# [32] = target: Neu5Ac(a2-6)Gal(b1-4)GlcNAc(b1-2)Man(a1-3)[Neu5Ac(a2-6)Gal(b1-4)GlcNAc(b1-2)Man(a1-6)]Man(b1-4)GlcNAc(b1-4)[Fuc(a1-6)]GlcNAc
# Procedure, shortened: as §1
# [33] = target: Neu5Ac(a2-6)Gal(b1-4)GlcNAc(b1-2)Man(a1-6)Man(b1-4)GlcNAc(b1-4)GlcNAc
# Procedure, shortened: as §1
# [34] = target: Neu5Ac(a2-6)Gal(b1-4)GlcNAc(b1-2)Man(a1-6)[Gal(b1-4)GlcNAc(b1-2)Man(a1-3)]Man(b1-4)GlcNAc(b1-4)GlcNAc
# Procedure, shortened: as §1
# [35] = target: Neu5Ac(a2-6)Gal(b1-4)GlcNAc(b1-2)Man(a1-6)[GlcNAc(b1-2)Man(a1-3)]Man(b1-4)GlcNAc(b1-4)GlcNAc
# Procedure, shortened: as §1
# [36] = target: Neu5Ac(a2-6)Gal(b1-4)GlcNAc(b1-2)Man(a1-6)[Man(a1-3)]Man(b1-4)GlcNAc(b1-4)GlcNAc
# Procedure, shortened: as §1
# [37] = target: Neu5Ac(a2-6)Gal(b1-4)GlcNAc(b1-2)[Neu5Ac(a2-6)Gal(b1-4)GlcNAc(b1-4)]Man(a1-3)[GlcNAc(b1-4)][Neu5Ac(a2-6)Gal(b1-4)GlcNAc(b1-2)[Neu5Ac(a2-6)Gal(b1-4)GlcNAc(b1-6)]Man(a1-6)]Man(b1-4)GlcNAc(b1-4)GlcNAc
# Procedure, shortened: as §1
# [38] = target: Neu5Ac(a2-6)Gal(b1-4)GlcNAc(b1-2)[Neu5Ac(a2-6)Gal(b1-4)GlcNAc(b1-4)]Man(a1-3)[GlcNAc(b1-4)][Neu5Ac(a2-6)Gal(b1-4)GlcNAc(b1-4)Man(a1-6)]Man(b1-4)GlcNAc(b1-4)GlcNAc
# Procedure, shortened: as §1
# [39] = target: Neu5Ac(a2-6)Gal(b1-4)GlcNAc(b1-2)[Neu5Ac(a2-6)Gal(b1-4)GlcNAc(b1-6)]Man(a1-6)[Neu5Ac(a2-6)Gal(b1-4)GlcNAc(b1-2)Man(a1-3)][GlcNAc(b1-4)]Man(b1-4)GlcNAc(b1-4)GlcNAc
# Procedure, shortened: as §1
# [40] = target: Neu5Ac(a2-6)Gal(b1-4)GlcNAc(b1-3)Gal(b1-3)GlcNAc
# Procedure, shortened: as §1
# [41] = target: Neu5Ac(a2-6)Gal(b1-4)GlcNAc(b1-3)Gal(b1-4)GlcNAc
# Procedure, shortened: as §1
# [42] = target: Neu5Ac(a2-6)Gal(b1-4)GlcNAc(b1-3)Gal(b1-4)GlcNAc(b1-2)Man(a1-3)[Neu5Ac(a2-6)Gal(b1-4)GlcNAc(b1-3)Gal(b1-4)GlcNAc(b1-2)Man(a1-6)]GalNAc
# Procedure, shortened: as §1
# [43] = target: Neu5Ac(a2-6)Gal(b1-4)GlcNAc(b1-3)Gal(b1-4)GlcNAc(b1-3)Gal(b1-4)GlcNAc
# Procedure, shortened: as §1
binder,measurement,setting,value
B1,glycan array binding signal (z-score),[1],-0.131
same,glycan array binding signal (z-score),[2],-0.139
same,glycan array binding signal (z-score),[3],-0.184
same,glycan array binding signal (z-score),[4],-0.222
same,glycan array binding signal (z-score),[5],-0.016
same,glycan array binding signal (z-score),[6],-0.324
same,glycan array binding signal (z-score),[7],-0.346
same,glycan array binding signal (z-score),[8],-0.369
same,glycan array binding signal (z-score),[9],0.057
same,glycan array binding signal (z-score),[10],-0.579
same,glycan array binding signal (z-score),[11],0.548
same,glycan array binding signal (z-score),[12],4.78
same,glycan array binding signal (z-score),[13],-0.435
same,glycan array binding signal (z-score),[14],-0.194
same,glycan array binding signal (z-score),[15],-0.049
same,glycan array binding signal (z-score),[16],-0.133
same,glycan array binding signal (z-score),Neu5Ac(a2-3)GalNAc,-0.038
same,glycan array binding signal (z-score),[17],-0.519
same,glycan array binding signal (z-score),[18],0.33
same,glycan array binding signal (z-score),[19],-0.189
same,glycan array binding signal (z-score),[20],-0.169
same,glycan array binding signal (z-score),[21],-0.339
same,glycan array binding signal (z-score),Neu5Ac(a2-6)Gal,-0.292
same,glycan array binding signal (z-score),[22],0.023
same,glycan array binding signal (z-score),Neu5Ac(a2-6)Gal(b1-4)Glc,-0.194
same,glycan array binding signal (z-score),[23],-0.363
same,glycan array binding signal (z-score),[24],0.137
same,glycan array binding signal (z-score),[25],-0.454
same,glycan array binding signal (z-score),[26],-0.449
same,glycan array binding signal (z-score),[27],-0.487
same,glycan array binding signal (z-score),[28],0.281
same,glycan array binding signal (z-score),[29],-0.097
same,glycan array binding signal (z-score),[30],-0.355
same,glycan array binding signal (z-score),[31],-0.199
same,glycan array binding signal (z-score),[32],0.278
same,glycan array binding signal (z-score),[33],0.04
same,glycan array binding signal (z-score),[34],-0.565
same,glycan array binding signal (z-score),[35],-0.352
same,glycan array binding signal (z-score),[36],-0.488
same,glycan array binding signal (z-score),[37],-0.55
same,glycan array binding signal (z-score),[38],0.066
same,glycan array binding signal (z-score),[39],-0.281
same,glycan array binding signal (z-score),[40],-0.469
same,glycan array binding signal (z-score),[41],-0.044
same,glycan array binding signal (z-score),[42],-0.393
same,glycan array binding signal (z-score),[43],-0.526
